Test results published in the supplement of paper PMC3334620.
Over roughly 33,000 sequences, “E-score (-0.5 to 0.5)” has its median near -0.011; the highest 2% begin near 0.28. The list shows a part of the results.

molecular target: T1, Gcr1 (UniProt P07261); experiment: PBM E-score (8-mer binding enrichment) (E-score (-0.5 to 0.5)); higher = stronger / more preferred TF binding; most listed sequences are background and not binding sites; conditions: protein concentration: 100 nM; construct: GST-full length
T1 sequence: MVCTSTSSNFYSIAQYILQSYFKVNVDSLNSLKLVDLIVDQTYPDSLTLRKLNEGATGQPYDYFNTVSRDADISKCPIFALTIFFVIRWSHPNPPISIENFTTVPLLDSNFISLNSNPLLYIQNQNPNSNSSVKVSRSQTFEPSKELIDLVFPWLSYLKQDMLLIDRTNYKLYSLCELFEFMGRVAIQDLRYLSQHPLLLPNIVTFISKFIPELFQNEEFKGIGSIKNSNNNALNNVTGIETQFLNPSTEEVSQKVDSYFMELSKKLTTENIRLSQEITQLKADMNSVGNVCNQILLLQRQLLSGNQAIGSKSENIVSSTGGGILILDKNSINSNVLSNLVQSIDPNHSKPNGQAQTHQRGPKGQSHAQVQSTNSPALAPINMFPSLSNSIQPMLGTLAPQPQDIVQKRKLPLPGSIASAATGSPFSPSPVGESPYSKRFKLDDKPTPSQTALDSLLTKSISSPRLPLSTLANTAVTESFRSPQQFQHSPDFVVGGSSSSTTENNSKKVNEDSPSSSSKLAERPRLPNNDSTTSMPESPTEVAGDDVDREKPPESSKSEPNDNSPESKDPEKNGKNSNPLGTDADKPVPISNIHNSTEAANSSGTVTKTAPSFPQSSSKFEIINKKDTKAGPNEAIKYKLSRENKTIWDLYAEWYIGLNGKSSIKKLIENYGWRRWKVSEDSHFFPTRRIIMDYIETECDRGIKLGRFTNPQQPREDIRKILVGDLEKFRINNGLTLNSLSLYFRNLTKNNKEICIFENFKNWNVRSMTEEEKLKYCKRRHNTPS
Summary of the method: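 Each ungapped eight-base word and its reverse complement, pooled, received an E-score from the Universal PBM Analysis Suite. Underlying scans, normalised with masliner, recorded fluorescent anti-GST bound to GST-tagged yeast transcription factors. These were applied at about 100-200 nM to universal all-10-mer Agilent arrays double-stranded by primer extension.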

**Q.** For CACTTCTC, which “PBM E-score” value is on record?
**A.** The value was 0.0143.

**Q.** For ATTGCGAC, which “PBM E-score” value is on record?
**A.** Its value is 0.00666.

**Q.** How did the “PBM E-score” value turn out when CCTTACTC was run?
**A.** Its value is -0.105.

**Q.** GCGGTGGA was tested. Which “PBM E-score” value did it give?
**A.** The value was 0.0209.

**Q.** Which “PBM E-score” value does the source give for AGGCGGAT here?
**A.** The value was -0.0646.

**Q.** How did the “PBM E-score” value turn out when CATAGCAA was run?
**A.** Its value is 0.0701.

**Q.** For GGTGAGCA, which “PBM E-score” value is on record?
**A.** The value was -0.0456.

**Q.** With GCATGTAC as the sequence, how does the “PBM E-score” value read?
**A.** The value was -0.129.

**Q.** CTCGTAAG was tested. Which “PBM E-score” value did it give?
**A.** Its value is -0.00585.

**Q.** For CGAAGTAG, which “PBM E-score” value is on record?
**A.** The value was -0.0634.

**Q.** With AAGTCCTG as the sequence, how does the “PBM E-score” value read?
**A.** The value was -0.124.

**Q.** How did the “PBM E-score” value turn out when TAAGGTGA was run?
**A.** The value was 0.0486.

**Q.** ACGCAGGC was tested. Which “PBM E-score” value did it give?
**A.** Its value is -0.112.

**Q.** TGTTAAAA was tested. Which “PBM E-score” value did it give?
**A.** The value was 0.0554.

**Q.** For CCTGAAGC, which “PBM E-score” value is on record?
**A.** Its value is -0.0642.

**Q.** How did the “PBM E-score” value turn out when AAAAAGGA was run?
**A.** Its value is 0.23.

**Q.** CTTTACGA was tested. Which “PBM E-score” value did it give?
**A.** The value was 0.0372.

**Q.** CGGTACCA was tested. Which “PBM E-score” value did it give?
**A.** The value was 0.0217.

**Q.** How did the “PBM E-score” value turn out when ATATTAAA was run?
**A.** Its value is 0.231.

**Q.** How did the “PBM E-score” value turn out when GAGGCCTC was run?
**A.** The value was -0.0204.

**Q.** ACAACGAC was tested. Which “PBM E-score” value did it give?
**A.** The value was 0.167.

**Q.** Which “PBM E-score” value does the source give for ATTAATAC here?
**A.** Its value is 0.236.

**Q.** Which “PBM E-score” value does the source give for CTCAGGTA here?
**A.** Its value is 0.0682.

**Q.** With ACGGCTCC as the sequence, how does the “PBM E-score” value read?
**A.** The value was 0.0972.

**Q.** With CAGTAAAC as the sequence, how does the “PBM E-score” value read?
**A.** The value was 0.00833.

**Q.** With ACGTTAGC as the sequence, how does the “PBM E-score” value read?
**A.** The value was -0.219.

**Q.** With ATGTACTG as the sequence, how does the “PBM E-score” value read?
**A.** The value was -0.0239.

**Q.** How did the “PBM E-score” value turn out when CCTAGGCA was run?
**A.** Its value is -0.189.

**Q.** Which “PBM E-score” value does the source give for AAAACTAT here?
**A.** The value was 0.00895.

**Q.** For CAAGACAA, which “PBM E-score” value is on record?
**A.** The value was -0.0716.

**Q.** Which “PBM E-score” value does the source give for CTAGATAC here?
**A.** Its value is 0.19.

**Q.** AATCGGAG was tested. Which “PBM E-score” value did it give?
**A.** The value was -0.0733.

**Q.** ACCTGGAC was tested. Which “PBM E-score” value did it give?
**A.** The value was -0.133.

**Q.** With AGTAAAGA as the sequence, how does the “PBM E-score” value read?
**A.** The value was -0.222.

**Q.** AATTTATC was tested. Which “PBM E-score” value did it give?
**A.** Its value is 0.0765.

**Q.** For CTACAAAA, which “PBM E-score” value is on record?
**A.** Its value is 0.161.

**Q.** How did the “PBM E-score” value turn out when GCAGCTGA was run?
**A.** Its value is 0.336.

**Q.** Which “PBM E-score” value does the source give for AATCTTTG here?
**A.** The value was 0.157.

**Q.** TTGTACAA was tested. Which “PBM E-score” value did it give?
**A.** Its value is 0.081.

**Q.** AGGTAAAA was tested. Which “PBM E-score” value did it give?
**A.** The value was -0.0831.

**Q.** With GAACACCC as the sequence, how does the “PBM E-score” value read?
**A.** The value was 0.0381.

**Q.** GCGACAGA was tested. Which “PBM E-score” value did it give?
**A.** Its value is -0.108.

**Q.** With AGCCACCG as the sequence, how does the “PBM E-score” value read?
**A.** Its value is 0.0874.

**Q.** CTAGGTCC was tested. Which “PBM E-score” value did it give?
**A.** Its value is -0.115.

**Q.** GGGTGCCA was tested. Which “PBM E-score” value did it give?
**A.** Its value is 0.414.

**Q.** TGCTCCCA was tested. Which “PBM E-score” value did it give?
**A.** Its value is -0.0935.

**Q.** With GCTCTCAA as the sequence, how does the “PBM E-score” value read?
**A.** Its value is 0.14.

**Q.** How did the “PBM E-score” value turn out when AGCCAAGC was run?
**A.** The value was -0.0873.

**Q.** Which “PBM E-score” value does the source give for ATAGCAGA here?
**A.** The value was 0.00534.

**Q.** How did the “PBM E-score” value turn out when AAGCCGCA was run?
**A.** The value was 0.266.

**Q.** Which “PBM E-score” value does the source give for ATGGTTTG here?
**A.** Its value is -0.0011.

**Q.** With GAAGTCGA as the sequence, how does the “PBM E-score” value read?
**A.** The value was -0.0123.

**Q.** Which “PBM E-score” value does the source give for AACTGTTG here?
**A.** The value was -0.0169.

**Q.** How did the “PBM E-score” value turn out when GATTCCCC was run?
**A.** Its value is 0.289.

**Q.** How did the “PBM E-score” value turn out when CAAAACAG was run?
**A.** The value was 0.152.

**Q.** With CTGGTACA as the sequence, how does the “PBM E-score” value read?
**A.** The value was 0.154.

**Q.** For GGGGACTA, which “PBM E-score” value is on record?
**A.** Its value is -0.245.

**Q.** Which “PBM E-score” value does the source give for GAAAGGCC here?
**A.** Its value is -0.189.

**Q.** For GGGAACCA, which “PBM E-score” value is on record?
**A.** The value was 0.314.

**Q.** With CTTGCTCA as the sequence, how does the “PBM E-score” value read?
**A.** Its value is -0.0829.

**Q.** With ACATACAT as the sequence, how does the “PBM E-score” value read?
**A.** The value was 0.0989.

**Q.** AATATGGG was tested. Which “PBM E-score” value did it give?
**A.** Its value is 0.0736.

**Q.** For AGAGCATA, which “PBM E-score” value is on record?
**A.** Its value is 0.0496.

**Q.** With CGCAGCAC as the sequence, how does the “PBM E-score” value read?
**A.** The value was -0.0714.

**Q.** For CGTGGAAA, which “PBM E-score” value is on record?
**A.** The value was 0.0989.

**Q.** How did the “PBM E-score” value turn out when ACAGCAAA was run?
**A.** The value was 0.0114.

**Q.** For ACACCCGG, which “PBM E-score” value is on record?
**A.** Its value is 0.00389.

**Q.** With AGTTGCAT as the sequence, how does the “PBM E-score” value read?
**A.** The value was -0.112.

**Q.** ACATTTCA was tested. Which “PBM E-score” value did it give?
**A.** Its value is 0.0812.

**Q.** How did the “PBM E-score” value turn out when AATCCCGA was run?
**A.** The value was 0.217.

**Q.** How did the “PBM E-score” value turn out when ATAATGCA was run?
**A.** Its value is -0.0183.

**Q.** With ATAGTTCA as the sequence, how does the “PBM E-score” value read?
**A.** Its value is 0.0266.

**Q.** GCCGGAAC was tested. Which “PBM E-score” value did it give?
**A.** The value was 0.247.

**Q.** Which “PBM E-score” value does the source give for CGTCTGCC here?
**A.** The value was -0.0726.

**Q.** Which “PBM E-score” value does the source give for GCTCGGAC here?
**A.** Its value is -0.265.

**Q.** ATTCTTGC was tested. Which “PBM E-score” value did it give?
**A.** The value was 0.0176.

**Q.** For AACTACGC, which “PBM E-score” value is on record?
**A.** The value was -0.103.

**Q.** With AAGACCAG as the sequence, how does the “PBM E-score” value read?
**A.** The value was -0.0707.

**Q.** With CTGGAATA as the sequence, how does the “PBM E-score” value read?
**A.** Its value is 0.259.

**Q.** With ACTGAGTA as the sequence, how does the “PBM E-score” value read?
**A.** Its value is -0.0348.

**Q.** For GATATATC, which “PBM E-score” value is on record?
**A.** Its value is 0.0242.

**Q.** How did the “PBM E-score” value turn out when GTCCACAC was run?
**A.** The value was 0.0205.

**Q.** For CTTACACA, which “PBM E-score” value is on record?
**A.** Its value is -0.0766.

**Q.** Which “PBM E-score” value does the source give for GTCACCCA here?
**A.** The value was -0.092.

**Q.** For AACAGGCA, which “PBM E-score” value is on record?
**A.** Its value is 0.0706.

**Q.** How did the “PBM E-score” value turn out when ACTCCATA was run?
**A.** The value was 0.0891.
